Each structure is given as a SMILES string. Out of some 310,000 compounds screened, about 2,200 (0.71%) showed an effect of 50% or more. The effect is printed as a negative number. Some of the results follow.

This assay deals with human ether-à-go-go-related gene (hERG) potassium channel (human, UniProt Q12809). The assay is described as follows: primary screen, population patch clamp on CHO cells stably expressing hERG.
Chain of human ether-à-go-go-related gene (hERG) potassium channel (Q12809 whole entry, looked up): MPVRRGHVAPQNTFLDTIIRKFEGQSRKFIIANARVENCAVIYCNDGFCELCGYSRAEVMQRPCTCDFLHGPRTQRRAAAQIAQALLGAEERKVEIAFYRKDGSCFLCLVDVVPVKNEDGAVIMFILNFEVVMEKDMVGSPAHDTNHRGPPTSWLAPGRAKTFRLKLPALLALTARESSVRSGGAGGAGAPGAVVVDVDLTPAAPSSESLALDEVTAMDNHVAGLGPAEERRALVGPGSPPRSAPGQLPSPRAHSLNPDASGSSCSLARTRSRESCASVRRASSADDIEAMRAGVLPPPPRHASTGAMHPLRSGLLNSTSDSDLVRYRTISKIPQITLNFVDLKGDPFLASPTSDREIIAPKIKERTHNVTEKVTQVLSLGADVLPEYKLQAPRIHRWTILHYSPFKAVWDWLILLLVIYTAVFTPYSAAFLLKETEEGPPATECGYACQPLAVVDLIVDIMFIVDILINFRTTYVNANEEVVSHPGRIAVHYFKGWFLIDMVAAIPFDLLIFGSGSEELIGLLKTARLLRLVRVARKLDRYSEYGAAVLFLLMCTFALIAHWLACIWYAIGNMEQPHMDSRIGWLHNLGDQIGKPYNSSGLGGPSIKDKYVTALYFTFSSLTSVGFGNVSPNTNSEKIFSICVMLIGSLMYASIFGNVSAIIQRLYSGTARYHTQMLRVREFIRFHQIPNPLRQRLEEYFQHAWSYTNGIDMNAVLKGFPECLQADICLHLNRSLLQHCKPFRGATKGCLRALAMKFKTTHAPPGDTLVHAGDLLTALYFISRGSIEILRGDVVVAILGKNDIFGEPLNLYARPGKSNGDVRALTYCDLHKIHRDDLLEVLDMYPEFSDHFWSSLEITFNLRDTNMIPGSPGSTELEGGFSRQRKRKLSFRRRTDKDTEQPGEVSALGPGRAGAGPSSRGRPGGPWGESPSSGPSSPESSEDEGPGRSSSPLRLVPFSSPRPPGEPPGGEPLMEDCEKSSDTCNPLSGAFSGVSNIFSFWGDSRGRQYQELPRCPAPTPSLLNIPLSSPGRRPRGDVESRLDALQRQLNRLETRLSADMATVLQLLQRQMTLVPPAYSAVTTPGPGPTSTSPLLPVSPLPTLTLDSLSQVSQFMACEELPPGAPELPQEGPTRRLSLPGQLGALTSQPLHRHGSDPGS
Take `CONC(=O)Nc1ccccc1[N+](=O)[O-]`: the “hERG current change (%, negative = inhibition) at 1uM” value was 7.76%.
With `O=C(CNC(=O)c1ccc(Cl)cc1Cl)OCC(=O)N1CCN(c2ccccc2)CC1` the figure was -4.05%; with `COc1ccc(Cn2c(-c3ccc(C)cc3)nc3c(c(=O)c4ccccc4n3C)c2=O)cc1`, 5.61%.
Under `O=C(Nc1cccc(F)c1)c1ccccc1` stands 13.3%; under `CCOc1cc(/C=N/NC(=O)CSc2nncn2C)ccc1OC(=O)c1ccc(Cl)cc1`, 1.72%.
With `O=C(CSc1ccccc1C(=O)O)c1ccccc1` the figure was 10.1%.
Turning to `CCC(NC(=O)c1ccccc1NC(=O)c1ccco1)C(=O)NNC(=O)c1ccc(OC)cc1` (stereo not shown), the “hERG current change (%, negative = inhibition) at 1uM” value was 11.8%.
For `CN1CCN(S(=O)(=O)c2ccccc2)CC1`, the “hERG current change (%, negative = inhibition) at 1uM” value was 12%.
Under `COc1ccc(CCNC(=O)COc2cc(C)cc3oc(=O)cc(C)c23)cc1` stands 10.2%; under `Cc1ccc(C(=O)N2CCN(c3ccc(NC(=O)c4ccc5c(c4)OCCO5)cc3)CC2)cc1`, 1.08%.
Turning to `N#CCCn1cc(/C=C(\C#N)c2nc3ccccc3s2)c(-c2ccc(F)cc2)n1`, the “hERG current change (%, negative = inhibition) at 1uM” value amounted to 13.1%.
With `CCOc1ccc(NC(=S)NNC(=O)c2cc(Br)ccc2Cl)cc1` the figure was 7.12%; with `Fc1ccc(Oc2ccnc(Cl)n2)c(Cl)c1`, 12.1%.
`CN(C(=O)c1cccc(COc2ccc(Cl)cc2Cl)c1)c1ccccc1`: the “hERG current change (%, negative = inhibition) at 1uM” value was 10.5%.
With `CC(=O)c1cccc(NC(=O)NCc2cccs2)c1` the figure was -3.79%; with `COc1ccc(CN2[C@@H](CC(C)=O)c3ccc(/C=C/C(C)=O)cc3S2(=O)=O)cc1`, -0.639%.
Under `O=C(CSc1ccccc1)NCC(c1ccco1)N1CCCCC1` (stereo not shown) stands 5.82%.
With `Cc1ccc2nc(NCCCNC(=O)c3cnccn3)c(C#N)cc2c1` the figure was 8.86%; with `Cc1ccc2oc(=O)c3cnn(CC(=O)N(CCC(C)C)Cc4ccco4)c3c2c1`, 0.634%; with `CC(Sc1nc(-c2ccccc2)cc(=O)[nH]1)C(=O)O` (stereo not shown), 5.94%.
Regarding `CCCCNC(=O)c1c(CSc2ccc(Cl)cc2)noc1C(=O)NCc1ccccc1`, the “hERG current change (%, negative = inhibition) at 1uM” value was found to be 9.35%.
With `N#Cc1cc2c(nc1SCC(=O)NCc1ccc3c(c1)OCO3)CCCCC2`, the “hERG current change (%, negative = inhibition) at 1uM” value stood at 1.91%.
As to `Cc1nnc2ccc(N3CCN(C(=O)c4ccccc4)CC3)nn12`, the “hERG current change (%, negative = inhibition) at 1uM” value stood at 5.47%.
Under `COc1cccc(CNC(=O)C2CCC(CNc3c(N4CCC(C)CC4)c(=O)c3=O)CC2)c1` (stereo not shown) stands 5.65%; under `COc1ccc(CCNC(=O)CNS(=O)(=O)c2cccs2)cc1OC`, 9.65%.
With `Cc1cc(C(C)(C)C)c(O)c(C)c1CC1=NCCN1.Cl` the figure was 7.93%.
With `O=C(NCCNc1nccc(C(F)(F)F)n1)c1cccc(C(F)(F)F)c1` the figure was 7.63%; with `COc1ccccc1C(=O)NC(=O)COC(=O)c1ccc(NC(=O)CC#N)cc1`, 14.2%; with `CN1C(=O)c2ccccc2C(C(=O)O)C1c1cn(C)c2ccccc12` (stereo not shown), 5.92%.
As to `O=C(OCC(=O)N1CCN(C(=O)c2ccco2)CC1)c1ccccc1NCCO`, the “hERG current change (%, negative = inhibition) at 1uM” value turned out to be 12.6%.
Turning to `Cc1cc(OCC(=O)Nc2ccc3c(c2)OCCO3)cc(C)c1Cl`, the “hERG current change (%, negative = inhibition) at 1uM” value is -1.09%.
Under `c1ccc(Nc2nc(-c3ccncc3)nc3ccccc23)cc1` stands 2.91%.
Under `COC(=O)COc1cccc(NC(=O)c2cc(OC)cc(OC)c2)c1` stands 2.89%.
Take `CN1CCN(c2nc(-c3ccncc3)nc3ccccc23)CC1`: the “hERG current change (%, negative = inhibition) at 1uM” value is reported as -64.9%.
Take `COc1cc(/C=C/c2nc(N)nc(-c3ccccc3O)n2)cc(OC)c1OC`: the “hERG current change (%, negative = inhibition) at 1uM” value is 4.31%.
Under `CCOC(=O)c1cccnc1SCC(=O)NCc1ccccc1` stands -1.84%; under `Cl.O=S(=O)(NCCc1ccccn1)c1cccs1`, 9.91%.
Under `COc1cc(C(=O)NCC(=O)N/N=C/c2cccs2)cc(OC)c1OC` stands 11.3%; under `CN(C(=O)COC(=O)c1ccc[nH]c1=O)C1CCCCC1`, 16%.
For the compound `CCC(=O)N(Cc1cc2ccc(C)cc2[nH]c1=O)c1ccccc1OC`, the “hERG current change (%, negative = inhibition) at 1uM” value amounted to 14%.
Consider `CCCCCCC(O)(CCN1CCCCC1)c1ccccc1.Cl` (stereo not shown), for which the “hERG current change (%, negative = inhibition) at 1uM” value is listed as -17.1%.
On to `Cn1cc(S(=O)(=O)N2CCCC2)cc1C(=O)NCCc1ccccc1`, for which the “hERG current change (%, negative = inhibition) at 1uM” value came out at 3.69%.
With `CSCCC(=O)N1CCC(CCC(=O)NC2CC2)CC1` the figure was 16.3%.
`O=C(NNC(=O)c1cnccn1)c1ccc(Cl)c(Cl)c1`: the “hERG current change (%, negative = inhibition) at 1uM” value is 8.46%.
With `Cc1cccc(N(C(=O)c2nsc(Cl)c2Cl)C(C(=O)NC2CCCC2)c2ccc(O)cc2)c1C` (stereo not shown) the figure was 10.1%; with `COC(=O)c1cc(NC(=O)c2cc(C)oc2C)cc(C(=O)OC)c1`, 12.6%.
Turning to `Fc1cccc(CN2CCN(Cc3nc(CCc4ccccc4)no3)CC2)c1`, the “hERG current change (%, negative = inhibition) at 1uM” value is reported as 3.49%.
Under `C=CCNC(=O)COC(=O)c1cccnc1Nc1ccccc1F` stands 9.25%.
`O=C(OCc1nnc(-c2ccccc2)o1)c1ccc(Cl)cc1`: the “hERG current change (%, negative = inhibition) at 1uM” value is reported as -6.38%.
`c1ccc2c(c1)[nH]c1nc3nncn3nc12`: the “hERG current change (%, negative = inhibition) at 1uM” value stood at 12.2%.
With `Cc1cc(C(=O)CSc2nc3ccccc3c(=O)[nH]2)c(C)n1CC1CCCO1` (stereo not shown), the “hERG current change (%, negative = inhibition) at 1uM” value is recorded as 2.89%.
Under `CC(C#N)N1CCN(S(=O)(=O)c2ccc3c(c2)CCC3)CC1` (stereo not shown) stands 7.67%; under `CC(C)c1cc(C(=O)N/N=C/C=C/c2ccccc2)n[nH]1`, 14.5%.
As for `CCc1cc(C(=O)N2CCCC(Nc3ccc(F)c(F)c3)C2)n(C)n1` (stereo not shown), the “hERG current change (%, negative = inhibition) at 1uM” value was determined as 3.56%.
With `COc1ccc(/C=C(\C#N)C(=O)NCC(c2ccc(F)cc2)N2CCOCC2)cc1` (stereo not shown) the figure was 6.99%.
With `O=C1CC(c2cccnc2)=NN1c1ccc(Cl)cc1Cl` the figure was 10.9%; with `Cc1ccc(-c2nn(CCC#N)cc2C(=O)O)cc1C`, 5.73%.
With `COc1ccccc1C1C2C(=O)N(c3ccccc3)C(=O)C2ON1c1ccccc1` (stereo not shown) the figure was 4.23%.
`COc1ccc(/C=C/CN2CCCC(C(=O)c3cc(F)ccc3F)C2)cc1` (stereo not shown): the “hERG current change (%, negative = inhibition) at 1uM” value is reported as -19.8%.
Under `Cc1cc(C)c(NC(=O)C2CCN(C(=O)c3ccco3)CC2)c(C)c1` stands 20.7%; under `COc1cccc2cc(C(=O)Nc3ccccc3C)/c(=N/O)oc12`, -4.05%; under `N#C/C(=C/c1cccc([N+](=O)[O-])c1)C(=O)Nc1ccccc1O`, 16.4%.
Under `CCc1ccc(C(=O)C(C)OC(=O)Cc2n[nH]c(=O)c3ccccc23)cc1` (stereo not shown) stands 9.05%; under `CCc1c(C#N)c(SCCC(=O)Nc2ccc(OC)cc2)nc2c1C(=O)CC(C)(C)C2`, 6.82%; under `O=C(NNC(=S)NCCCN1CCOCC1)c1ccncc1`, 16.6%.
With `CCOC(=O)Cc1csc(N/N=C/c2ccc(C(F)(F)F)cc2)n1` the figure was 6.32%.
Regarding `CC(C)(C)NCC(O)COc1ccccc1C1CCCC1.O=S(=O)(O)O` (stereo not shown), the “hERG current change (%, negative = inhibition) at 1uM” value is 4.61%.
Under `CC(=O)N1CCN(CCN=Cc2c(O)n(-c3ccc(F)cc3)c(=S)[nH]c2=O)CC1` stands 16.4%; under `O=C(NCC(c1cccnc1)N1CCOCC1)NC1CCCCC1` (stereo not shown), 13.9%.
With `COc1ccc(/C=C/C(=O)NCc2cnn(C)c2C)cc1COc1ccc(Br)cc1` the figure was 11.2%.
For `CN1c2ccsc2C(=O)/C(=C\Nc2cccc(C(F)(F)F)c2)S1(=O)=O`, the “hERG current change (%, negative = inhibition) at 1uM” value amounted to 10.9%.
With `CC(=O)CSc1ccc(S(=O)(=O)N2CCN(C)CC2)cn1` the figure was 3.46%; with `COc1ccc(NS(=O)(=O)c2cccc(C(=O)N/N=C/c3ccc(O)cc3)c2)cc1`, 6.08%.
Turning to `[O-]/C(=C(\C(=S)NCc1ccccc1)[n+]1ccccc1)c1ccc(Cl)cc1`, the “hERG current change (%, negative = inhibition) at 1uM” value was 10.1%.
`Cc1ccc(S(=O)(=O)/N=C(/NC(=S)Nc2c(C)n(C)n(-c3ccccc3)c2=O)c2ccccc2)cc1`: the “hERG current change (%, negative = inhibition) at 1uM” value is 4.19%.
For `O=C(c1ccccc1Sc1ccc([N+](=O)[O-])cc1Cl)N1CCOCC1`, the “hERG current change (%, negative = inhibition) at 1uM” value is listed as 9.4%.
Under `Cc1ccc(C(CC(=O)NCCCN(C)C)c2ccc(OC(C)C)cc2)cc1` (stereo not shown) stands 4.33%; under `NC(=S)n1[nH]c(-c2ccc([N+](=O)[O-])cc2)c(N=Nc2ccc(O)cc2)c1=O`, 8.9%.
On to `COc1ccc(Br)cc1CNC(=O)CCc1nc(-c2ccccc2F)no1`, for which the “hERG current change (%, negative = inhibition) at 1uM” value is 12.7%.
As for `Cc1ccc(S(=O)(=O)N2CCC(C(=O)N3CCc4ccccc43)CC2)cc1`, the “hERG current change (%, negative = inhibition) at 1uM” value was found to be 1.88%.
On to `CC(C)(C)n1nnnc1C(c1cc2cc3c(cc2[nH]c1=O)OCO3)N1CCN(c2ccccc2)CC1` (stereo not shown), for which the “hERG current change (%, negative = inhibition) at 1uM” value is recorded as 2.69%.
Under `Cc1ccc(NC(=S)NCCc2ccccc2)c(C)c1` stands 7.72%; under `O=C(O)c1cc(-c2ccc(Cl)cc2)n(-c2cccc(Cl)c2)n1`, 16.3%; under `COc1cc(C(=S)N2CCCC2)ccc1OC(=O)c1ccc(Cl)cc1[N+](=O)[O-]`, 12.8%.
Under `CCC1(c2ccccc2)NC(=O)N(CC(=O)NNC(=O)CCN2CCN(c3ccccc3)CC2)C1=O` (stereo not shown) stands 14.3%; under `Cc1nnc(SCc2ccc(C(=O)c3ccc(Cl)cc3)o2)n1-c1ccccc1`, -14.1%.
Under `CSc1cccc(CN2CCC(CO)(Cc3cccc(C(F)(F)F)c3)CC2)c1` stands -35.9%.
Turning to `CC(C)/C=C1\CCCCC1N(C)C(=O)NC(C)C` (stereo not shown), the “hERG current change (%, negative = inhibition) at 1uM” value is 16.4%.

For the origin of these results see paper PMC4336329 (PLoS ONE, 2015).
